Measured values as given in paper PMC10726135.
The list shows a part of the results. At the low end of the ranking, values are background and their order means little. Measured with an extract: partners may take part in the binding.

molecular target: T1, HNF4alpha8 (COS-7 nuclear extract) (UniProt P41235-5); assay: protein-binding microarray; details: COS-7 nuclear extract on double-stranded Agilent 4x180k PBM; binding buffer, salt, pH and temperature not given; high values mean tight binding; double strand, one strand shown; sequences stand for … in …GCCTAGGGAGATTAGAGTATCGGTCGA
T1 sequence: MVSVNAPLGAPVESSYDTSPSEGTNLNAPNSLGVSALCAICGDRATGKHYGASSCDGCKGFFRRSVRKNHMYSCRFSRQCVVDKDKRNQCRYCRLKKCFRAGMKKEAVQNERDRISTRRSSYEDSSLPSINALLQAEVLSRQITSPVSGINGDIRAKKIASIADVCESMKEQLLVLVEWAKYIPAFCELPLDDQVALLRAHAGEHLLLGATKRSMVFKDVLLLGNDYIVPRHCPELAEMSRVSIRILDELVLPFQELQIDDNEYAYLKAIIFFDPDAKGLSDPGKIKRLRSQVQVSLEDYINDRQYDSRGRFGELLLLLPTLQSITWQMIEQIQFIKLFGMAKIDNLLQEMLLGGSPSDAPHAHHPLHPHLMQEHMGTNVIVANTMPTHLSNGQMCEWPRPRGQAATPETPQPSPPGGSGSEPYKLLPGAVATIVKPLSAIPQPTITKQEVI

Row | Sequence | binding signal (log2 normalized intensity)
1 | TATTTGGATAATGTGCCCTTTGTACCTGGG | 7.72
2 | TTCGGGAGACATGTGGCCTTTGGTACAGGG | 3.19
3 | GTGACTCTAGGAACCTTTCTCCATACCTCT | -0.874
4 | AGAGGGTTAACCCCTATTAACCAAAGCTAC | -1.16
5 | CCTTGTTGCCCACCCCCCAAGTAGAGAGCA | 5.1
6 | CCAGTCAGAATCTCTCTGTAGGTAAAGACT | -0.917
7 | CTCTTTCTAGGTCACCACCTTTTTTGGCCT | 1.73
8 | GTGTGCAATTAGAGCAAAGGTTACTGCAGA | 3
9 | GTCAAAGGGTACAAATTCCAGAGAGGGGCC | 1.93
10 | AATAATAGTTGACCTTTGAGAACCTCCCAT | 4.66
11 | TCTAGAGTCTGACTACTTCTCACCACCTCT | -1.25
12 | ATGCCTCACCTGGCAAGGCAGCCTCAGCCA | -1.23
13 | AGGGGCAGGGTTCACATAGCCACCAGGGCC | 0.88
14 | CCCTCAGCAAACCTTCTGGCAGTGGGAGTA | -1.32
15 | ATTAACCTTTGAGCTGGGTGGCCCTCTCCC | 3.57
16 | TTGGACATGTAACTGCTATTGGTTGTCAGA | 1
17 | GTGAATAGCACTGACCAGCTCCAAAGTCCG | 3.71
18 | AGAACCTTGGAGGCGGCGGCTCCGGGAGCT | -1.31
19 | CTGTCCATCTTTTGCCCCTCTTATGCCCCT | 5.51
20 | CTCTCCCCAGTTCAAAGGTTAAGACTTTGA | 5.44
21 | GGAATCCTCCTAAGTAGCCAAGATTACAGC | -1.3
22 | GACCCTGGCCGGAAACTCCGCCCCATTGTC | 2.04
23 | GCAGGTAGGGGTGGGATGGGGAGCAGTGGG | -1.44
24 | TAAAGCAGAGGGCTGCTTGCAGGAGGCCGG | -1.37
25 | GTGACCCGTGACCCTCAGGAACCAAGCATT | 1.9

Row | Sequence | binding signal (log2 normalized intensity)
26 | TGAGATAGGAGGTCAGCACAAGATACAGCT | -1.3
27 | GTTCCTGCCTGGAGCCACTGAAGTGAGTTA | -0.757
28 | GGAGAGAAAAGCAAGATTGGGAGCTGGGAG | -1.36
29 | GGAGGTTATCTTGGGGCTAATGTCTCTCTG | 1.1
30 | TGTTTATCTTACAGGCTTATACGTGGAAGA | 0.663
31 | TTTCAGTGCCCTCATAAGAGACTTTGCCCT | 7.15
32 | GTAGCTTCAAACCAGTTATTCCAAGATCCA | -1.15
33 | TTTCTCCTCTCTGGGCTTCCATTGTGATTC | 0.00881
34 | GGGTCAAAGCCCAGGAGAGCAAAAAGGGCC | -1.3
35 | GTGTTTATAAAGTTGGGAAAAGTAACACAG | 0.696
36 | TTCAGTCTAAATGATGGCCAGGGAGTACAC | 1.22
37 | CCGGACTCTGCCCCACAATTCTTGGATCTC | 1.97
38 | TCATGGGCCAAAGTTTGTTTCTTATCACAC | 1.4
39 | ACCTTTGTTCACATTTGTGCTCAGCCAACA | 0.549
40 | CCCCAGAGGTGGAATCTATAGAGGCAGTGA | -1.2
41 | CAGAGACATGCTAGCCTCGAGATAACCCAC | -1.18
42 | AATGACAGTGTCAGGACCTTGCTCCTGTTC | 1.46
43 | CCTATGGTATGTATGGAATGTCACTTTCTG | 1.79
44 | GGGCTAACGCTGCTGTCTGTCTTCGGGCGG | -1.15
45 | CTATGTCCTTATCCTCATTGTGTGCAGACC | 1.58
46 | AGCAAACCTGTCTCTCTGCATTCCTCCTGG | 0.684
47 | GCATACAAAACAACCACTCTTATCAGACAG | -1.28
48 | ATTGAATTAAACACAGTTGCCTATGCCCTT | 2.38
49 | ATACTATATTTGTCCCACATTAACTGTGCT | -1.26
50 | TGGTGGCAATGTGTCAGAGAAGGAGCCAGA | -1.29

Row | Sequence | binding signal (log2 normalized intensity)
51 | TGAAAGTCAACAAGATTCCTTGAGCATTCC | -1.36
52 | CAGGTGAGAGGCCTCTAAGCATAACTGGTT | -1.29
53 | TAGAGCTTTTGAGGGTGACCGATCGTTATT | 1.48
54 | TCAACATCAAAGGCCTTCCTATCTCTACTT | -1.4
55 | CGCCTGCAGAAACTTTCTTTTTGTTGTTAG | 1.19
56 | TGTGCCCTCGGGTCCCACACACCTCAAATG | -1.12
57 | ACTTCATTCAGGTAGCAGGCCTCAGAGATA | -1.36
58 | CCCATCCCCAACAAAGCTCTGCATCCTTCC | 1.28
59 | CCTTGTCTAAGCCCTTATCAAAAAGATAAG | -1.22
60 | TTGTTCTATTAACCTGGCCAAACACCAAAT | 0.553
61 | GAGGTCAAGATAAGATACGAAGGGTTTAAA | -0.273
62 | GGTCAGCAATGGTAATTACCTTCTAGTGGT | -0.63
63 | TGAGGAAGGCTCTTTGTTCAGAGGGCATGT | 2.18
64 | GCGGTGCCATTCACAGGAATGTTGGCAGCA | -1.27
65 | AAGAAGTCCAAGGACTTATCCTTGGGACAT | -1.31
66 | ACCAAGCAAGCCAGTCAGAATCTCTCTGTA | -1.29
67 | ACAGGGTGTGGCTTCCAAGGGGAATGTGGA | -0.512
68 | TCTTTTTAATCAATAATCTTTGCCCTTGAA | 3.49
69 | GAGTCCAGTGAACAAAACATGGATTTTGGA | 1.84
70 | CTTTGGCTGCAAAATTTGAACAAAAAAAGA | -1.25
71 | GCAAAGGTCAGCTCATTCCCTAGGGCTCGG | -0.991
72 | GAAAGGAGAAGCTGGAGATAAGGATAGAGG | -1.37
73 | GGCCAGTTTGATCACAAGACATGAAGATGC | -1.03
74 | CTCAAAGTCTAACCCAACTAAGAACACAGT | 1.24
75 | CGAGCTTCACCTTTGTCCTCTCTCCCACAA | 3.7

Row | Sequence | binding signal (log2 normalized intensity)
76 | TTTATGACCTTTGACTGCAGAAGATAAGAA | 4.5
77 | TTGAAGATAATCACCCGATAAGCTGACCCC | 6.25
78 | TGAAATGGTTACAAAGGTCACACTCCTGTG | 4.64
79 | GTTCACTTGCCAAGCCTAGTTTTGATTATC | 0.644
80 | CTTAAGACCTAGATGGAATGTTGTGTCTTC | 1.32
81 | CTAGTTAAGTCACTGGGCTGATGACCTTTG | 6.81
82 | CCTCCAGGGAGGGGAGAGGGGGTTAAAGGT | 1.84
83 | ATCCTGCTAGCAGCTCTCTCCCTTATCTGA | -1.37
84 | CGAACTAGCTTGGTGCAGGGGCGGGGCCGC | -1.19
85 | GCGTGAGCCACCGCGCCCCGCCCCCAGTGC | 5.57
86 | GGTATGCATGGAATGCAGGAGATCCAGTAG | -0.791
87 | ATGCGTCATCCGCATCTGAAGATAAGAGAA | -1.25
88 | TTCCGCGGACGTGTTCCCACAGTGCCCTCT | 3.77
89 | TTTTACAGACAGGCATGACAGAGTGTCCTG | 0.341
90 | ACCTCTGTAATAACTGCAGTGCCACTCGGG | -0.418
91 | TGCGGAATGACATTCAGCAACTGGGTTCAG | 1.64
92 | TTCACCTTTGTCCTCTCTCCCACAAGGGCA | 3.04
93 | GGGGTCAAAGTCCCCTGAGCTTGAGTCCAT | 6
94 | CTGCCACATTTTTATCCTTTTTTGAAGGTT | 2
95 | TCCTGACAATTGGCCAAAGTTCAGTAAATC | 3.61
96 | AAACCTTTGCCCCACTCTCCTCTGCCACTG | 2.85
97 | ACTTTGCCTTTTGGCTAAAGTCCAAATTCC | 6.01
98 | ATAGGCACATATTGGATCTCTGGTATTTTG | 1.41
99 | CAAAATCGCCACTACAAAGGGAATCAGGTT | -1.35
100 | ACCCAGATAGGCAAAGTGGCTAGGACCTTT | 3.03

Row | Sequence | binding signal (log2 normalized intensity)
101 | CTGATTCTGATTAGGTGGATTCGCCCAGCA | -1.06
102 | AGTGGCTCCTAGAATTATCCCACCCCCAAT | 4.37
103 | CATTCAACTGACACTTGTTTGAATTGTGAT | 1.35
104 | AAAAACAGGTTCTGCAACACTTTCTAAGGA | -1.38
105 | TGGAATGTCAAGATTGAGACATTCATGGCT | -1.07
106 | GACTCAGAAAAATATGTGGACTTCAAAGGT | 1.87
107 | AGTGAGGGACAAGGCTGTCCCCCATCTCAT | 1.5
108 | AAGCTTGCTGATTACATAGGAGGCTGCCTC | -0.854
109 | AAAGGTCATCGCACCGGCAGGGGAGAACTT | 1.24
110 | TTTCTGGGACCAAGGGTCAGTTCATTAAAA | 2.94
111 | TTGCTCAACCTGGACCTCATTAATAGGGCA | 1.35
112 | AGCAAAGTTCAGAGAGGAATCGGCAGTTTG | -1.3
113 | AGAACATTGCAGTGGCTCAGAGGTTATCTC | 0.94
114 | GACAAGGCTCTGGTGGGGAATGCTAGGACT | -1.23
115 | TGCTGGTTTACAACATTCCTTTGTATTTTT | 1.26
116 | TAGACCTAGATAAGGGAGATGAAAGGGGCC | -1.39
117 | GTGTGTGGTGTGTGTGTGTGTGTTTTGTGC | 2.79
118 | GGGGCATCCCTCGTAGGCAGGGCCAGATAA | -1.3
119 | TCCTAAGGCCTTCAACTGATAAGAAGGGGC | -1.35
120 | CCTGTCTCATCCTGTGACCAAGAATGCCTA | -1.11
121 | ATAAGCCACGAGCCTGCCTGCTCCTCCTCG | -1.45
122 | CACCGTAAATCACATTGTTAGCAGAAACCA | -1.22
123 | GTGAGAAACATCCTGCCTAACCACCTGACC | -0.657
124 | AAAGGGGCTAGGGCAAAGATCAAACATACA | 2.64
125 | TCTTATCTCACTGGATGTGTACCTCATCTT | 1.14

Row | Sequence | binding signal (log2 normalized intensity)
126 | ACCCTGTTGGTTTCTGGGATTTGTACAAGT | 1.92
127 | ACCTGATGTTTGGACAGTGTGACTCATCAA | 0.849
128 | AGACCCTTATCAGTAGTTCTCCTTTCTGCC | 0.51
129 | ACCCATTATGGCCACTGTGTGTGTGTGTGT | 2.82
130 | TTAAAGGCAAAGTCCAGAACCTGGAACCTA | 2.97
131 | CGTTCCCCGAGCGAGCTCCGTGCGGGAGGC | -1.19
132 | CAAGTATTTTCAGCCACCTTTATCTGATCA | 1.59
133 | AGAAAGCAGCCATAGACGATGTGTAAACAA | -1.34
134 | ATATAATCATTCATGGGCCAAAGTTTGTTT | 2.25
135 | GCAAAGGTCACTCTTGCTATGCCTTAGCAA | 0.78
136 | GTGCAAAGGTTAAAATGCCCTCACAGGTTC | 2.19
137 | AAAGTTCAGTTGCAAAGAACAGAATCCAGT | -0.777
138 | TTCATTGCACTTTGCCCTCTCTTCAGCACC | 6.34
139 | GTATGGTAAGGTCGACCTTTAAACGTTTGC | 5.81
140 | ACTGAAAGGGAACCCTAATCCACATGCTAT | -1.26
141 | ATCCCCGCCCCCAACGGGCCACGCCCTGCA | 4.65
142 | CTTCCATATAACCCTTGAACCTTCTTCTTG | 4.81
143 | TAGCTCATTAAGCTTAGCGTTATCAAACCA | -1.31
144 | CACTCATCCCTTGCACTGCTCAGGGTGGGG | 0.0631
145 | GCCTGGACCTTGGAATGTCAAGATTGAGAC | 2.54
